Several values for one entry are separate records, joined by “and”; a condition that tells them apart may be missing. Equal values may be shown once. Read-outs that look alike come from different tables or passages of the source.
Tests used:
recombinant bovine CaM [1] = target: T1, recombinant bovine CaM (Bos taurus, UniProt P62157); test: biochemical
[2] = target: Rluc8-K-RasG12V/ GFP2-CaM in HEK-293 EBNA cells (Homo sapiens, UniProt P0DP23); assay type: cell-based; conditions: for remaining activity at 10 µM: log c (inhibitor) /M -5; for remaining activity at 5 µM: log c (inhibitor) /M -5.30103; for remaining activity at 1 µM: log c (inhibitor) /M -6; for remaining activity at 0.1 µM: log c (inhibitor) /M -7; for DSS3 BRET score: K-RasG12V/CaM BRET, dose response 0.1–80 μM
recombinant bovine CaM [3] = target: T1, recombinant bovine CaM
[4] = HEK293-EBNA, 24 h, Mean, read-out: normalized BRET ratio
[5] = HEK293-EBNA, 24 h, replicates N1-N3, read-out: normalized BRET ratio

**Q.** Which IC50 (recombinant bovine CaM [1]) does the source give for `FC(F)(F)c1ccc2c(c1)N(CCCN1CCN(CCCl)CC1)c1ccccc1S2` [fluphenazine mustard] here?
**A.** 4900 ± 500 nM

**Q.** And the Kd (recombinant bovine CaM [1])?
**A.** 290 ± 30 nM

**Q.** What about the “normalized BRET ratio” value [2] of the same compound?
**A.** 49.87

**Q.** What about the remaining activity at 40 µM ([2]; HEK293-EBNA, 24 h, log c (inhibitor) /M -4.39794, Mean, read-out: normalized BRET ratio) of the same compound?
**A.** 41.6%

**Q.** What about the remaining activity at 10 µM [2, 4] of the same compound?
**A.** 65.4%

**Q.** What about the remaining activity at 10 µM [2, 5] of the same compound?
**A.** 57.1%

**Q.** And the remaining activity at 5 µM [2, 4]?
**A.** 72.1%

**Q.** And the remaining activity at 5 µM ([2]; HEK293-EBNA, 24 h, replicates, read-out: normalized BRET ratio)?
**A.** 72.1%

**Q.** And the remaining activity at 1 µM [2, 4]?
**A.** 85.9%

**Q.** And the remaining activity at 1 µM [2, 5]?
**A.** 93.2%

**Q.** What about the remaining activity at 0.1 µM [2, 4] of the same compound?
**A.** 97.5%

**Q.** And the remaining activity at 0.1 µM [2, 5]?
**A.** 92.5%

**Q.** And the remaining activity at 80 µM ([2]; HEK293-EBNA, 24 h, read-out: normalized BRET ratio)?
**A.** 39.4%

**Q.** What about the “increase of intracellular activity against CaM/ K-RasG12V (DSS3 BRET) compared to Flu” value ([2]; HEK-293 EBNA) of the same compound?
**A.** more than a factor of two

**Q.** What about the “DSS3 BRET score” value ([2]; mean) of the same compound?
**A.** 13.1

**Q.** What about the “DSS3 BRET score” value ([2]; replicates N1-N3) of the same compound?
**A.** 15.2 and 12.2 and 11.9

**Q.** What about the “affinity / binding to CaM (in words)” value (recombinant bovine CaM [3]; fluorescence polarization) of the same compound?
**A.** submicromolar affinities

**Q.** And the Anisotropy values (recombinant bovine CaM [3]; log c /M -4, mean)?
**A.** 66.85

**Q.** What about the Anisotropy values (recombinant bovine CaM [3]; log c /M -4, replicates N1, N2) of the same compound?
**A.** 67.3 and 66.4

**Q.** What about the Anisotropy values (recombinant bovine CaM [3]; log c /M -4.47712, mean) of the same compound?
**A.** 68.05

**Q.** What about the Anisotropy values (recombinant bovine CaM [3]; log c /M -4.47712, replicates N1, N2) of the same compound?
**A.** 67.2 and 68.9

**Q.** And the Anisotropy values (recombinant bovine CaM [3]; log c /M -4.95424, mean)?
**A.** 75.65

**Q.** What about the Anisotropy values (recombinant bovine CaM [3]; log c /M -4.95424, replicates N1, N2) of the same compound?
**A.** 75 and 76.3

**Q.** And the Anisotropy values (recombinant bovine CaM [3]; log c /M -5.43136, mean)?
**A.** 94.85

**Q.** And the Anisotropy values (recombinant bovine CaM [3]; log c /M -5.43136, replicates N1, N2)?
**A.** 93.5 and 96.2

**Q.** And the Anisotropy values (recombinant bovine CaM [3]; log c /M -5.90848, mean)?
**A.** 105

**Q.** What about the Anisotropy values (recombinant bovine CaM [3]; log c /M -5.90848, replicates N1, N2) of the same compound?
**A.** 104.8 and 105.2

**Q.** And the Anisotropy values (recombinant bovine CaM [3]; log c /M -6.38561, mean)?
**A.** 108.95

**Q.** What about the Anisotropy values (recombinant bovine CaM [3]; log c /M -6.38561, replicates N1, N2) of the same compound?
**A.** 108.2 and 109.7

**Q.** What about the Anisotropy values (recombinant bovine CaM [3]; log c /M -6.86273, mean) of the same compound?
**A.** 109.35

**Q.** What about the Anisotropy values (recombinant bovine CaM [3]; log c /M -6.86273, replicates N1, N2) of the same compound?
**A.** 108.9 and 109.8

**Q.** What about the Anisotropy values (recombinant bovine CaM [3]; log c /M -7.33985, mean) of the same compound?
**A.** 111.1

**Q.** What about the Anisotropy values (recombinant bovine CaM [3]; log c /M -7.33985, replicates N1, N2) of the same compound?
**A.** 110.8 and 111.4

**Q.** What about the Anisotropy values (recombinant bovine CaM [3]; log c /M -7.81697, mean) of the same compound?
**A.** 109.95

**Q.** And the Anisotropy values (recombinant bovine CaM [3]; log c /M -7.81697, replicates N1, N2)?
**A.** 109.5 and 110.4

**Q.** And the Anisotropy values (recombinant bovine CaM [3]; log c /M -8.29409, mean)?
**A.** 111.45

**Q.** And the Anisotropy values (recombinant bovine CaM [3]; log c /M -8.29409, replicates N1, N2)?
**A.** 111.4 and 111.5

**Q.** And the Anisotropy values (recombinant bovine CaM [3]; log c /M -8.77121, mean)?
**A.** 110.15

**Q.** What about the Anisotropy values (recombinant bovine CaM [3]; log c /M -8.77121, replicates N1, N2) of the same compound?
**A.** 111.1 and 109.2
